Targets with the largest changes are over-represented here; the source holds about 21,000 in all.
Compound: Cc1cc(ccc1-c1ccccc1)C(=O)N1CCCN(CC1)C(=O)CCl [compound 10]
Assay: probe-labelled cysteine peptide fold change vs DMSO (competition) (log2 fold change); higher = less target engagement (more negative = stronger competition)
Settings: THP-1, incubation time: 4 h
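Further: competitive profiling in live THP-1 cells: cysteine peptides tagged with an iodoacetamide desthiobiotin (IA-DTB) probe, intensity after compound treatment relative to DMSO-treated cells.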

Sequence of UniProt P14866 (P14866 whole entry, looked up): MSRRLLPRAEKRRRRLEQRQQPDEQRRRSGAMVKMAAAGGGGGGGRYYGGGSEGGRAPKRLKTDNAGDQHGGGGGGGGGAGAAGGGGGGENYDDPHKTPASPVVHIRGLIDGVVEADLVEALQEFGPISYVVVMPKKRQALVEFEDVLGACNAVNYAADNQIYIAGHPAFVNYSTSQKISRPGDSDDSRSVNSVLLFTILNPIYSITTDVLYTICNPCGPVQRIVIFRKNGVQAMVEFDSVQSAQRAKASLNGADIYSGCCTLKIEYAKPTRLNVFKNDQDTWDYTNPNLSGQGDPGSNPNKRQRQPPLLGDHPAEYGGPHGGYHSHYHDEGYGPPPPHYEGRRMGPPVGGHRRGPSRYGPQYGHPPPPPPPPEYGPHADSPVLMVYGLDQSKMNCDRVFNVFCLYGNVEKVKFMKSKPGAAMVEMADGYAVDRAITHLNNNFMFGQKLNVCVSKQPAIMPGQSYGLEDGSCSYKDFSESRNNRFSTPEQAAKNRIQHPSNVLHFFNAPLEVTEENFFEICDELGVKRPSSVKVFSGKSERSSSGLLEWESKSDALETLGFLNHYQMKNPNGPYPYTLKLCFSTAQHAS
Sequence of UniProt Q6UW63 (Q6UW63 whole entry, looked up): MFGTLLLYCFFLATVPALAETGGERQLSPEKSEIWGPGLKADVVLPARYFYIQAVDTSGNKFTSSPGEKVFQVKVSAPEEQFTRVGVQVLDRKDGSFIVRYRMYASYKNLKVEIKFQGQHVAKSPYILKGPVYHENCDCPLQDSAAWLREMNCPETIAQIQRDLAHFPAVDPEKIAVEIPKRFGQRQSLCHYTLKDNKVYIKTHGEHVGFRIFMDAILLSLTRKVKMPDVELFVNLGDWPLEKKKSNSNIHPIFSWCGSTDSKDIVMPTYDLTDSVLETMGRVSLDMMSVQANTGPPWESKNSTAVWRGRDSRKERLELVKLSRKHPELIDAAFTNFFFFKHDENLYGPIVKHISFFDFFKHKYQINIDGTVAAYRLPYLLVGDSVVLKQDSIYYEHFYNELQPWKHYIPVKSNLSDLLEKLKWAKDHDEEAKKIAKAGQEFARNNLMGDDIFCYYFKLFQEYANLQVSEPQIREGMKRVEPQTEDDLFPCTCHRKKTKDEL
Sequence of UniProt Q7Z4S6 (Q7Z4S6 whole entry, looked up): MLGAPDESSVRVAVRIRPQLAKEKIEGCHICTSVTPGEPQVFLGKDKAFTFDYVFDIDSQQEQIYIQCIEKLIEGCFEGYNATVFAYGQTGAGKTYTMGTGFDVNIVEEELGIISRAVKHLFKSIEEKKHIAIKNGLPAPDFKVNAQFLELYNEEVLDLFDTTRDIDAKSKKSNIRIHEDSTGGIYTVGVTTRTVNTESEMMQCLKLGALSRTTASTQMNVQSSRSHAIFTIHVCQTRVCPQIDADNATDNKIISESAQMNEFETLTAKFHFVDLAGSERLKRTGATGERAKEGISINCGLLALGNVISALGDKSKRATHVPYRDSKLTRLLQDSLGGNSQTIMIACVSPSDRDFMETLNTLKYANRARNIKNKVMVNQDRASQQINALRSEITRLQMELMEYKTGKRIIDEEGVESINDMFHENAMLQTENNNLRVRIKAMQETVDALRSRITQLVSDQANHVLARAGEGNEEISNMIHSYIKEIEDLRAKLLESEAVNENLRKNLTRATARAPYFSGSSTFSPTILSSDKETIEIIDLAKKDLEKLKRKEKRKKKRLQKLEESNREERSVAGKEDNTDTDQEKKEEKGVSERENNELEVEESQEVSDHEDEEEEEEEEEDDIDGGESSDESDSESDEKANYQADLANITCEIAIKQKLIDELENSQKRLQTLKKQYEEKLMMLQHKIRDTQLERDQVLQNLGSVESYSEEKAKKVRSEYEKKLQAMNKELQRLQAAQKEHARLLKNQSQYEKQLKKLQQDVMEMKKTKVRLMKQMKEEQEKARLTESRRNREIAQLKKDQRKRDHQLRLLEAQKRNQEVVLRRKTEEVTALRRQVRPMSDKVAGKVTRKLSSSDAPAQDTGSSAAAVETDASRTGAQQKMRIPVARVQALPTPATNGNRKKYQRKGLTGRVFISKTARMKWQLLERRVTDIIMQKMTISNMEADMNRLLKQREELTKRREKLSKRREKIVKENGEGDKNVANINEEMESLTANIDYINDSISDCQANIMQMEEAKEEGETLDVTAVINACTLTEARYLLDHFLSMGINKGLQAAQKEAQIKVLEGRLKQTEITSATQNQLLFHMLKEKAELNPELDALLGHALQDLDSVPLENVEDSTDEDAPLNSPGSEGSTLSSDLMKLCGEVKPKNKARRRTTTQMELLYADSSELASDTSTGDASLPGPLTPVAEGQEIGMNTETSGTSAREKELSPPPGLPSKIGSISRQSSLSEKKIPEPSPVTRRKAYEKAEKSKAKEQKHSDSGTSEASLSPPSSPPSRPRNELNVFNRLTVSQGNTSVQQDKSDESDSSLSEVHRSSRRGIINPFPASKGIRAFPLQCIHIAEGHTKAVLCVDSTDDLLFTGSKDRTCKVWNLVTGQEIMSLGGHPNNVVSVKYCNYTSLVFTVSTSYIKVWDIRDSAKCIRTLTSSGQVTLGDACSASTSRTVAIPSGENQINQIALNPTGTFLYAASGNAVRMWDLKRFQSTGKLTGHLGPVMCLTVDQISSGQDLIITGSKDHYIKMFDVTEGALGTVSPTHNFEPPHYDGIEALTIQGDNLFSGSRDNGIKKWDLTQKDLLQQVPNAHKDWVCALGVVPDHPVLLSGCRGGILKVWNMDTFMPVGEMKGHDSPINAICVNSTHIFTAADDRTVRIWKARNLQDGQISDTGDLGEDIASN
Sequence of UniProt P48735 (P48735 whole entry, looked up): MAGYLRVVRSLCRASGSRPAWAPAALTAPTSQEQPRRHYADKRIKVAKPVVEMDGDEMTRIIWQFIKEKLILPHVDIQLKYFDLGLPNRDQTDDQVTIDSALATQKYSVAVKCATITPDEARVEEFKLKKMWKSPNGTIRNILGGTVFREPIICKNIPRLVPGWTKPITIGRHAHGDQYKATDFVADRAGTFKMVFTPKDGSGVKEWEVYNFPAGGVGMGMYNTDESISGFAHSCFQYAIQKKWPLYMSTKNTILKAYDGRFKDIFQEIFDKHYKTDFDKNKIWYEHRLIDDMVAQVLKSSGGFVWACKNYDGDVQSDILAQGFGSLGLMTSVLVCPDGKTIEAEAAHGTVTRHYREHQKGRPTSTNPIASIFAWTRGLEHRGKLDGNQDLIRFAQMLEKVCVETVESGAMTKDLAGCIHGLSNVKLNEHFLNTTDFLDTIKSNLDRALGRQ
Sequence of UniProt O00505 (O00505 whole entry, looked up): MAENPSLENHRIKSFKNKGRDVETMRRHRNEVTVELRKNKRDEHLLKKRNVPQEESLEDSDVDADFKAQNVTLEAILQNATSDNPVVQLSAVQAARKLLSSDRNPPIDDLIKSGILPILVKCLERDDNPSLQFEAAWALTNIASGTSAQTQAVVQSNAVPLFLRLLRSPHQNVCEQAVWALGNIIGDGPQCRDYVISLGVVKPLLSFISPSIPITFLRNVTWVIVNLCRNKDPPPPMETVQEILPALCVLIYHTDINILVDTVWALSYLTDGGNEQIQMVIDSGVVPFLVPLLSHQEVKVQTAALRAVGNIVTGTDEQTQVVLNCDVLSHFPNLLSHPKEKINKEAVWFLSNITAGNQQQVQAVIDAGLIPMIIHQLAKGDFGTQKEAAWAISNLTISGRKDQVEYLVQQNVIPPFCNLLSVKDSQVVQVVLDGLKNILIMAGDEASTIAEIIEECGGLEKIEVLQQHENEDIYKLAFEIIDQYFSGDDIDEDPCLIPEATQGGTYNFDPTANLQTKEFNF
Sequence of UniProt Q8IWL3 (Q8IWL3 whole entry): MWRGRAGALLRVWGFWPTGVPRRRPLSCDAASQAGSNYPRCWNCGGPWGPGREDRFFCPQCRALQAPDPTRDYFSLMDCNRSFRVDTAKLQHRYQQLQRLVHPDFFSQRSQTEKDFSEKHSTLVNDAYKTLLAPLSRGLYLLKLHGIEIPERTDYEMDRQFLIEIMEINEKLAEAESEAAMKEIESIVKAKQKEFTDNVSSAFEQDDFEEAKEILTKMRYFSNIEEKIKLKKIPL
Sequence of UniProt Q8N4N3 (Q8N4N3 whole entry, looked up): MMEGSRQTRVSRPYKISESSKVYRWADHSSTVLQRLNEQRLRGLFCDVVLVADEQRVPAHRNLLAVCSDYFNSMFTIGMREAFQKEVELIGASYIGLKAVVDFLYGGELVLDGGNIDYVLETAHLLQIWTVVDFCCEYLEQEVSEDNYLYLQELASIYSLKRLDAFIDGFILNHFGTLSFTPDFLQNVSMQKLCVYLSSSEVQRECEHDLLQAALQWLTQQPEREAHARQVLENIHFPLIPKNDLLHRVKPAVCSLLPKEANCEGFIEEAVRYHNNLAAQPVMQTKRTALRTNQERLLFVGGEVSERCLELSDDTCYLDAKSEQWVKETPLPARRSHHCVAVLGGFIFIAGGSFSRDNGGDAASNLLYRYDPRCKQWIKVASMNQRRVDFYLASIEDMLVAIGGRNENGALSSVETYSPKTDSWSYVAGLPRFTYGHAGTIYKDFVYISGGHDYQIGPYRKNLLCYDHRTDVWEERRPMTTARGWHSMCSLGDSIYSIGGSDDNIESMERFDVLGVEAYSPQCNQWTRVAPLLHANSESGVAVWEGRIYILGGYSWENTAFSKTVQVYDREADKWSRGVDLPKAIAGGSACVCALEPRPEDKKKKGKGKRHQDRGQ
Sequence of UniProt Q5T6J7 (Q5T6J7 whole entry, looked up): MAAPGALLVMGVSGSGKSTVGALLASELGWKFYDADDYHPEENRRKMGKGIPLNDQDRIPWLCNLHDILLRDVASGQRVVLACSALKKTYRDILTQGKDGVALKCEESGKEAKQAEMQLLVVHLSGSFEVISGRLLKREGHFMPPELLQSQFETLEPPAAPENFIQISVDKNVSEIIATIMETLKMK

Target	probe-labelled cysteine peptide fold change (10 µM)	probe-labelled cysteine peptide fold change (50 µM)
HPS5_Q9UPZ3_37_CTSIAVSR (UniProt Q9UPZ3)	0.0797	0.192
KARS_Q15046_427_KILDDICVAK (UniProt Q15046)	-0.516	-1.13
HSPA4_P34932_34_CTPACISFGPK (UniProt P34932)	0.0694	-0.11
ITGB2_P05107_286_CHLEDNLYK (UniProt P05107)	-0.0831	0.121
KPNB1_Q14974_223+228_HFIMQVVCEATQCPDTR (UniProt Q14974)	-0.0406	-0.0077
IDH2_P48735_402_VCVETVESGAMTK (UniProt P48735)	0.209	0.00225
HNRNPU_Q00839_607_KAVVVCPKDEDYK (UniProt Q00839)	-0.249	-0.901
KIF21A_Q7Z4S6_1603_DWVCALGVVPDHPVLLSGCR (UniProt Q7Z4S6)	0.1	-0.243
HNRNPL_P14866_452_LNVCVSK (UniProt P14866)	-0.00163	-0.0389
HUWE1_Q7Z6Z7_1401_AESPEEVACR (UniProt Q7Z6Z7)	-0.23	-0.068
INTS13_Q9NVM9_119_ADPECCSILHGLVAAVETLCK (UniProt Q9NVM9)	0.134	-0.319
INCENP_Q9NQS7_355_IICHSYLER (UniProt Q9NQS7)	0.105	-0.0799
KIFC1_Q9BW19_663_VNQCVIGTAQANR (UniProt Q9BW19)	-0.000363	0.211
KBTBD6_Q86V97_173_RLDLTNCTAILK<|>KBTBD7_Q8WVZ9_173_RLDLTNCTAILK (UniProt Q8WVZ9+Q86V97)	0.229	0.385
KDELC1_Q6UW63_493_VEPQTEDDLFPCTCHR (UniProt Q6UW63)	0.1	0.204
IDNK_Q5T6J7_83_VVLACSALK (UniProt Q5T6J7)	-0.0499	0.0798
KTI12_Q96EK9_103_TPLCLVYCVRPGGPIAGPQVAGANENPGR (UniProt Q96EK9)	-0.18	-0.433
IARS2_Q9NSE4_414_GTGLVHTAPAHGMEDYGVASQHNLPMDCLVDEDGVFTDVAGPELQNK (UniProt Q9NSE4)	-0.227	-0.124

Target	probe-labelled cysteine peptide fold change (10 µM)	probe-labelled cysteine peptide fold change (50 µM)
KARS_Q15046_463_LVGEFLEVTCINPTFICDHPQIMSPLAK (UniProt Q15046)	0.0979	0.0536
IL1RAP_Q9NPH3_47_CPLFEHFLK (UniProt Q9NPH3)	-0.224	0.177
IQGAP1_P46940_1270_RFFQTACDVPELQDK (UniProt P46940)	0.0567	-0.0367
KLHL36_Q8N4N3_465_NLLCYDHR (UniProt Q8N4N3)	0.0949	-0.131
HNRNPM_P52272_676_DKFNECGHVLYADIK (UniProt P52272)	-0.0946	-1.48
HSPA14_Q0VDF9_440_QHTLQAPGSISSVCLELYESDGK (UniProt Q0VDF9)	0.106	0.0226
IARS2_Q9NSE4_110_TEFCLHDGPPYANGDPHVGHALNK (UniProt Q9NSE4)	-0.111	-0.0208
KPNA3_O00505_417_DQVEYLVQQNVIPPFCNLLSVK (UniProt O00505)	0.149	0.121
HSCB_Q8IWL3_79_ALQAPDPTRDYFSLMDCNR (UniProt Q8IWL3)	0.142	-0.245
ITGAV_P06756_172_TVEYAPCR (UniProt P06756)	-0.159	0.026
ITGB2_P05107_497_SSQELEGSCR (UniProt P05107)	-0.0844	-0.0127
KEAP1_Q14145_319_IFEELTLHKPTQVMPCR (UniProt Q14145)	-0.0511	-1.48
IRF9_Q00978_241_VVGEAQVQSLDCR (UniProt Q00978)	-0.179	-0.266
IFI35_P80217_107_EHTINMEECR (UniProt P80217)	0.0968	0.0397
KPNA5_O15131_427_PLCDLLTVMDSK<|>KPNA6_O60684_427_PLCDLLTVMDSK<|>KPNA1_P52294_429_PLCDLLTVMDSK (UniProt P52294+O60684+O15131)	0.15	0.0435
JUP_P14923_609_VAAGVLCELAQDK<|>CTNNB1_P35222_619_VAAGVLCELAQDK (UniProt P35222+P14923)	0.164	1.06
HSPA1A_P0DMV8_306_ARFEELCSDLFR<|>HSPA1B_P17066_306_ARFEELCSDLFR<|>HSPA6_P48741_308_ARFEELCSDLFR (UniProt P48741+P17066+P0DMV8)	0.89	1.28
